The campaign covered roughly 310,000 compounds. About 2,200 (0.71%) showed an effect of 50% or more. The effect is printed as a negative number. Some of the results follow.

In this experiment the target is human ether-à-go-go-related gene (hERG) potassium channel (human, UniProt Q12809). The experiment is described as follows: primary screen, population patch clamp on CHO cells stably expressing hERG.
Chain of human ether-à-go-go-related gene (hERG) potassium channel (Q12809 whole entry, looked up): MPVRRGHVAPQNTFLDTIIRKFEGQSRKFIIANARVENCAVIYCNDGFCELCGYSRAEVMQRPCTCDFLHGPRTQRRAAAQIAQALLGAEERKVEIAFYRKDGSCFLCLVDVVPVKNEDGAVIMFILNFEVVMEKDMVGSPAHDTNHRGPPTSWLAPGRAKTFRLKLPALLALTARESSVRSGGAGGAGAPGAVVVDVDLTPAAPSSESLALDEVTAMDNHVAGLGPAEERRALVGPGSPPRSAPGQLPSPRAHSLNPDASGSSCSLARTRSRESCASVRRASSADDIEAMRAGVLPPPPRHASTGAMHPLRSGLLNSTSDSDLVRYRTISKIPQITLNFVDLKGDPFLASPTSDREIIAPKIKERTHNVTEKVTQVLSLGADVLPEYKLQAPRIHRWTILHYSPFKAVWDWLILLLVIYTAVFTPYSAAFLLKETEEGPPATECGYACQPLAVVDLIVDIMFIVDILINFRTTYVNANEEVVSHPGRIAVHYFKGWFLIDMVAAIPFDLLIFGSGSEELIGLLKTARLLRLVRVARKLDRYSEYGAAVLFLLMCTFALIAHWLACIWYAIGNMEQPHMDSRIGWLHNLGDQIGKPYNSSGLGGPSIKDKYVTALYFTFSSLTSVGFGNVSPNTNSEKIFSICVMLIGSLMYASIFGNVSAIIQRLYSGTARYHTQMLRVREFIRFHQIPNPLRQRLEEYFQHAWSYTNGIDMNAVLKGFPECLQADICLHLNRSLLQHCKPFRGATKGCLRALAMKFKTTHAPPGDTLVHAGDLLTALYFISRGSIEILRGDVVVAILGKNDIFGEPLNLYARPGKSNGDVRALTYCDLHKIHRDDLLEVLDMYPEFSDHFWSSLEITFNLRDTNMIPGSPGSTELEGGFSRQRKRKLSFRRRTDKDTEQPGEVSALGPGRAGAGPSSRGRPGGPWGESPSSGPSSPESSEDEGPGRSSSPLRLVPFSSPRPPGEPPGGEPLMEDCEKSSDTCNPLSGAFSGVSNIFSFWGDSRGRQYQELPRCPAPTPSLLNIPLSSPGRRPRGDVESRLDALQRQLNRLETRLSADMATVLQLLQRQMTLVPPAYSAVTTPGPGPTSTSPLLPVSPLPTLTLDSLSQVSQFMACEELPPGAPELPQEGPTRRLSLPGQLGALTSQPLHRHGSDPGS
On to `c1ccc(Oc2ccc(-c3ccnc4nc(N5CCN(c6ccccc6)CC5)nn34)cc2)cc1`, for which the “hERG current change (%, negative = inhibition) at 1uM” value was 8.46%.

As to `N#CCSc1ccccc1NC(=O)COC(=O)CCN1C(=O)C2CC=CCC2C1=O` (stereo not drawn), the “hERG current change (%, negative = inhibition) at 1uM” value was determined as 5.69%.

For `COc1ccc(-c2nnc(SCC(=O)NCCc3ccc(S(N)(=O)=O)cc3)o2)cc1OC`, the “hERG current change (%, negative = inhibition) at 1uM” value is on record as 14.8%. The result for `CSc1ccccc1-n1nnnc1SCC(=O)Nc1ccccc1C` reads -9.11%; that for `CN(C)CCOc1cccc(Cl)c1.O=C(O)C(=O)O`, 2%; that for `Cc1[nH]nc(SCC(=O)N2CCC(C)CC2)c1[N+](=O)[O-]`, 11.6%.

Consider `CCC(=O)NCCCNc1nc2c(C)cccc2cc1C#N`, for which the “hERG current change (%, negative = inhibition) at 1uM” value is given as 11.2%. The result for `CC1CCC(NC(=O)C2CCN(c3c4c(nc5ncnn35)CCC4)CC2)CC1` (stereo not drawn) reads 10.8%; that for `COc1ccc(-n2nc(C(=O)NCC(=O)NC3CCCCCC3)c3ccccc3c2=O)cc1OC`, -3.82%; that for `N#Cc1c2c(nc(N)c1-c1ccccc1)CCCCC2`, 11.1%. Consider `Cc1cccc(Nc2cc(=O)[nH]c(=O)[nH]2)c1`, for which the “hERG current change (%, negative = inhibition) at 1uM” value is recorded as 11.9%. For the molecule `Cc1cc(OCC(=O)NCC(C)C)cc(C)c1Br`, the “hERG current change (%, negative = inhibition) at 1uM” value is reported as 10.6%. As for `CCCCn1c(SCC(=O)N2CC(C)CC(C)C2)nc2cc(S(N)(=O)=O)ccc21` (stereo not drawn), the “hERG current change (%, negative = inhibition) at 1uM” value was 8.72%. The result for `CC(C)Oc1ccc2c3c(c(=O)oc2c1)CCC3` reads -12.9%.

Take `COc1ccccc1-c1c(C)nn2c(N3CCOCC3)cc(C)nc12`: the “hERG current change (%, negative = inhibition) at 1uM” value is listed as 0.407%. For `CCOC(=O)C1=C(C)N(CCCC(=O)O)C(=O)NC1c1cccc(OC)c1` (stereo not drawn) the value was 8.36%; for `Cc1ccc(NC(=O)Cn2c(-c3ccc(F)cc3)cnc2SCC(=O)Nc2c(C)cccc2C)cc1`, 12.1%; for `O=C(COC(=O)CCSc1ccccc1)Nc1ccc(F)cc1Cl`, 7.08%. For `CCCc1cnc(N2CCN(C(=O)c3c(-c4ccccc4)noc3C)CC2)nc1` the value was 6.99%; for `O/N=C(/c1ccccc1)c1cc2cc(Br)cc(Br)c2o1`, 12%. For `O=C1NC2NC(=O)N(C(Cc3ccccc3)C(=O)O)C2N1` (stereo not drawn) the value was -5.43%. Regarding `CCn1c(-c2ccc(OC)c(OC)c2)n[nH]c1=S`, the “hERG current change (%, negative = inhibition) at 1uM” value came to 14.2%. Consider `CC(C)C[C@H](NC(=O)c1nc[nH]c1C(=O)NCC(=O)OCc1ccccc1)C(=O)OC(C)(C)C`, for which the “hERG current change (%, negative = inhibition) at 1uM” value is recorded as -2.66%. For `Cc1ccc2c(c1)CCCN2C(=O)c1ccc2c(c1)OCO2` the value was 14.6%. As for `Cc1cc(C(=O)COC(=O)c2ccncc2)c(C)n1CCc1ccc(F)cc1`, the “hERG current change (%, negative = inhibition) at 1uM” value was 6.81%. For `O=C(c1nn2c(C(F)(F)F)cc(-c3ccccc3)nc2c1Cl)N1CCOCC1`, the “hERG current change (%, negative = inhibition) at 1uM” value is given as 8.79%. `CCN(CC)CCCNC(=O)c1sc2ncn(CC(=O)Nc3ccc(C)c(Cl)c3)c(=O)c2c1C`: the “hERG current change (%, negative = inhibition) at 1uM” value is listed as 9.82%. `Cc1nc2ccc(NC(=O)NCc3ccco3)cc2s1`: the “hERG current change (%, negative = inhibition) at 1uM” value is listed as 20.1%.

For `CCNC(=S)NNC(=O)c1ccoc1C`, the “hERG current change (%, negative = inhibition) at 1uM” value is listed as 5.98%. For `CCC(=NCCN1CCOCC1)c1c(O)n(-c2ccccc2C)c(=O)[nH]c1=O` the value was 9.31%; for `CC(=O)N1CCc2[nH]c3ccc(C)cc3c2C1`, 4.86%; for `COC(=O)C1=NN(C(C)=O)C2(CC(=O)N(c3cc(C)cc(C)c3)C2=O)C1` (stereo not drawn), -6.56%. As for `Cc1cc(=O)oc2cc(OC(=O)c3ccccc3)ccc12`, the “hERG current change (%, negative = inhibition) at 1uM” value came to 18.6%.

As to `Nc1nc(C(=O)N2CCOCC2)nn1C(=O)c1ccc(Cl)cc1`, the “hERG current change (%, negative = inhibition) at 1uM” value is on record as 7.53%. `Cc1onc(-c2ccccc2)c1C(=O)OCc1nnc(-c2ccc([N+](=O)[O-])cc2)o1`: the “hERG current change (%, negative = inhibition) at 1uM” value is reported as -51.2%. For `CCN(CC(=O)NCc1ccc(Cl)cc1)C(=O)NCc1ccc(Cl)cc1` the value was -54.1%. For `COc1cc(-c2nnc(COc3ccc4ccccc4c3)o2)cc(OC)c1OC` the value was 9.34%; for `CNC(=O)COC(=O)/C=C/c1ccco1`, 5.71%; for `Cc1ccc(NC(=O)COc2coc(CN3CCN(Cc4ccccc4)CC3)cc2=O)cc1`, -44.4%.

Turning to `CCOC(=O)C1=C(CS(=O)(=O)c2ccc(C)cc2)NC(=O)NC1c1cc(OC)c(OC)c(OC)c1` (stereo not drawn), the “hERG current change (%, negative = inhibition) at 1uM” value was 3.43%. Take `CN(CCc1cnn(C)c1)Cc1cn(C)nc1-c1ccccc1F`: the “hERG current change (%, negative = inhibition) at 1uM” value is listed as 0.587%. In the case of `O=C(CCn1cnc2ccccc21)N/N=C/c1ccc(O)cc1`, the “hERG current change (%, negative = inhibition) at 1uM” value is 11.5%.

In the case of `O=C(Nc1ccccc1F)c1ccc2nc(N3C(=O)CCC3=O)sc2c1`, the “hERG current change (%, negative = inhibition) at 1uM” value stood at 13.2%.

On to `Cc1ccc(C)c(-c2nnc(NC(=O)Cc3ccccc3)o2)c1`, for which the “hERG current change (%, negative = inhibition) at 1uM” value is listed as 11.1%. The result for `COCCNc1nnc(SCC(=O)c2ccc3c(c2)OCO3)s1` reads 2.85%.
